This note sets out measurements from the supplement of paper PMC9542798.

What all share (test): minimum inhibitory concentration
Compound in test [1]: CNC(C)C1CCC(N)C(OC2C(N)CC(N)C(OC3OCC(C)(O)C(NC)C3O)C2O)O1 [Gentamicin]
As to the method:
(§1)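 Broth microdilution MIC per ISO 10932 on precoated VetMIC Lact-1 plates (tylosin, vancomycin and ampicillin plates prepared manually) against lactic acid bacteria and bifidobacteria isolates. Plates were read visually after 48 h anaerobic incubation (bifidobacteria 72 h; enterococci and staphylococci 24 h aerobic) at species-specific temperatures of 30 or 37 °C. Values prefixed with < or > are outside the tested dilution range.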

Compound in test [2]: O=C(N[C@H](CO)[C@H](O)c1ccc([N+](=O)[O-])cc1)C(Cl)Cl [Chloramphenicol]
As to the method:
as §1

Compound in test [3]: CN(C)[C@@H]1C(O)=C(C(N)=O)C(=O)[C@@]2(O)C(O)=C3C(=O)c4c(O)cccc4[C@@](C)(O)[C@H]3C[C@@H]12 [Tetracycline]
As to the method:
as §1

Compound in test [4]: CCC[C@@H]1C[C@@H](C(=O)N[C@@H]([C@H]2O[C@H](SC)[C@H](O)[C@@H](O)[C@H]2O)[C@H](C)Cl)N(C)C1 [Clindamycin]
As to the method:
as §1

Compound in test [5]: NC[C@H]1O[C@H](O[C@H]2[C@H](O)[C@@H](O[C@H]3O[C@H](CO)[C@@H](O)[C@H](N)[C@H]3O)[C@H](N)C[C@@H]2N)[C@H](O)[C@@H](O)[C@@H]1O [Kanamycin]
The protocol:
as §1

Compound in test [6]: CC[C@H]1OC(=O)[C@H](C)[C@@H](O[C@H]2C[C@@](C)(OC)[C@@H](O)[C@H](C)O2)[C@H](C)[C@@H](O[C@@H]2O[C@H](C)C[C@H](N(C)C)[C@H]2O)[C@](C)(O)C[C@@H](C)C(=O)[C@H](C)[C@@H](O)[C@]1(C)O [Erythromycin]
As to the method: as §1

Compound in test [7]: CN[C@@H]1[C@H](O[C@H]2[C@H](O[C@H]3[C@H](O)[C@@H](O)[C@H](N=C(N)N)[C@@H](O)[C@@H]3N=C(N)N)O[C@@H](C)[C@]2(O)C=O)O[C@@H](CO)[C@H](O)[C@H]1O [Streptomycin]
The protocol: as §1

Compound in test [8]: CC1(C)S[C@@H]2[C@H](NC(=O)[C@H](N)c3ccccc3)C(=O)N2[C@H]1C(=O)O [Ampicillin]
As to the method: as §1

Compound in test [9]: NC[C@@H]1O[C@H](O[C@H]2[C@@H](O)[C@H](O[C@@H]3[C@@H](O)[C@H](N)C[C@H](N)[C@H]3O[C@H]3O[C@H](CN)[C@@H](O)[C@H](O)[C@H]3N)O[C@@H]2CO)[C@H](N)[C@@H](O)[C@@H]1O [Neomycin]
As to the method:
as §1
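Note: isolates derived from commercial starter, protective, probiotic or feed-additive cultures, from fermented products, from human gut mucosa or feces, and from human milk or colostrum.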

As for “Pediococcus acidilactici/pentosaceus/lolli IM715 (strain group: human milk or colostrum)”, the minimum inhibitory concentration in test [1] was determined as 8 µg/mL; in test [2], 4 µg/mL; in test [3], 32 µg/mL; in test [4], 0.12 µg/mL; in test [5] it was 256 µg/mL; in test [6] it was 0.5 µg/mL. The figures for the minimum inhibitory concentration in test [7], in [8] and in test [9] were 128 µg/mL, 4 µg/mL and 8 µg/mL, respectively.
In the case of “Pediococcus acidilactici/pentosaceus/lolli IM718 (strain group: human milk or colostrum)”, the minimum inhibitory concentration in [1] came to 8 µg/mL; in test [2], 8 µg/mL; in [3], 32 µg/mL; in test [4], 0.12 µg/mL; in test [5] it was 256 µg/mL; in test [6], 1 µg/mL. Further, the minimum inhibitory concentration in [7] was 128 µg/mL; in [8], 4 µg/mL; in [9] it was 16 µg/mL.
Take “Pediococcus acidilactici/pentosaceus/lolli IM719 (strain group: human milk or colostrum)”: the minimum inhibitory concentration amounted to 8 µg/mL in [1]; 8 µg/mL in [2]; 32 µg/mL in test [3]; 0.12 µg/mL in test [4]; 256 µg/mL in test [5]; 0.5 µg/mL in test [6]. Also, the minimum inhibitory concentration was 64 µg/mL in test [7], 4 µg/mL in test [8] and 16 µg/mL in test [9].
In the case of “Pediococcus acidilactici/pentosaceus/lolli IM720 (strain group: human milk or colostrum)”, the minimum inhibitory concentration came to 16 µg/mL in [1]; 8 µg/mL in test [2]; 64 µg/mL in test [3]; 0.25 µg/mL in test [4]; 256 µg/mL in test [5]; 1 µg/mL in test [6]. The minimum inhibitory concentration in test [7] was found to be 128 µg/mL; in test [8] it was 4 µg/mL; in [9], 32 µg/mL.
With “Pediococcus acidilactici/pentosaceus/lolli IM721 (strain group: human milk or colostrum)”, the minimum inhibitory concentration in test [1] was 16 µg/mL; in test [2] it was 8 µg/mL; in test [3] it was 32 µg/mL; in [4] it was 0.12 µg/mL; in test [5], 256 µg/mL; in [6] it was 1 µg/mL. The minimum inhibitory concentration in test [7] was found to be 64 µg/mL; in [8], 4 µg/mL; in [9] it was 16 µg/mL.
Regarding “Pediococcus pentosaceus IM1054 (strain group: non-starter strains)”, the minimum inhibitory concentration in test [1] is 4 µg/mL; in test [2], 4 µg/mL; in [3], 32 µg/mL; in [4], 0.12 µg/mL; in [5] it was 256 µg/mL; in [6], 0.5 µg/mL. For the same test system, the minimum inhibitory concentration in test [7] was determined as 64 µg/mL; in [8], 4 µg/mL; in test [9], 8 µg/mL.
Consider “Pediococcus pentosaceus IM1056 (strain group: non-starter strains)”, for which the minimum inhibitory concentration in test [1] worked out at 8 µg/mL; in [2] it was 4 µg/mL; in test [3], 32 µg/mL; in test [4], 0.12 µg/mL; in test [5], 256 µg/mL; in test [6], 0.5 µg/mL. The minimum inhibitory concentration in test [7] was found to be 64 µg/mL; in test [8] it was 4 µg/mL; in test [9], 8 µg/mL.
For the test system “Pediococcus pentosaceus IM1061 (strain group: non-starter strains)”, the minimum inhibitory concentration in test [1] is 8 µg/mL; in test [2], 4 µg/mL; in test [3] it was 32 µg/mL; in [4], 0.06 µg/mL; in test [5] it was 256 µg/mL; in [6], 0.5 µg/mL. Also, the minimum inhibitory concentration is 128 µg/mL in test [7], 4 µg/mL in [8] and 8 µg/mL in test [9].
Consider “Pediococcus pentosaceus IM1065 (strain group: non-starter strains)”, for which the minimum inhibitory concentration in test [1] came to 4 µg/mL; in test [2], 2 µg/mL; in test [3], 16 µg/mL; in [4], 0.06 µg/mL; in [5] it was 128 µg/mL; in test [6], 0.5 µg/mL. Also, the minimum inhibitory concentration turned out to be 64 µg/mL in test [7], 2 µg/mL in test [8] and 4 µg/mL in test [9].
